The supplement of paper PMC9588766
Structures can show the parent of a compound that is named as a salt. ± gives the standard deviation of the averaged measurements. The full ranking holds about 2,000 compounds; the median of “cell viability relative to DMSO control (compound alone)” is about 0.98, and the lowest 2% start at about 0.23. This is one part of the list.

Test system: PDC-DUC18828
Experiment: cell viability relative to DMSO control (compound alone) (fraction); PDC-DUC18828 is a patient-derived cholangiocarcinoma cell line; higher = less growth inhibition
Details: 1 µM; 72 h
Description: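 Selleck Bioactive library screen in the patient-derived FGFR2-G3BP2 fusion-positive ICC cell line PDC-DUC18828 (500 cells/well). Each compound was tested at 1 uM alone, in triplicate, for 72 h. Viability was read by CellTiter-Glo and normalised to plate DMSO controls.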

Row | Compound | cell viability
1 | Cc1nc2c(O)cccc2c(=O)[nH]1 | 0.93 ± 0.019
2 | O=C(NNc1ccccc1)c1ccncc1 | 0.997 ± 0.029
3 | CC(C)n1cnc2c(NCCc3ccc(O)cc3)nc(-c3csc4ccccc34)nc21 [StemRegenin 1 (SR1)] | 1.01 ± 0.025
4 | Cc1cc(F)c(Nc2ncnc3cc(OCc4ccccc4)ccc23)cc1O | 0.949 ± 0.054
5 | O=c1[nH]c(=O)n([C@H]2C[C@H](O)[C@@H](CO)O2)cc1C(F)(F)F [Trifluridine] | 0.997 ± 0.025
6 | Cn1cncc1[C@@](N)(c1ccc(Cl)cc1)c1ccc2c(c1)c(-c1cccc(Cl)c1)cc(=O)n2C [Tipifarnib] | 0.79 ± 0.032
7 | Cc1cc(C#N)cc(C)c1Oc1nc(Nc2ccc(C#N)cc2)nc(N)c1Br [Etravirine (TMC125)] | 0.935 ± 0.057
8 | NC1=NCC2c3ccccc3Cc3ccccc3N12 (stereo not drawn) [Epinastine HCl] | 0.989 ± 0.06
9 | NC(=O)N1c2ccccc2CC(=O)c2ccccc21 [Oxcarbazepine] | 1.02 ± 0.06
10 | Oc1nc(-c2ccc(C(F)(F)F)cc2)nc2c1CSCC2 | 0.94 ± 0.017
11 | Cc1nc2ccc(NC(=O)Nc3ccnc4cccnc34)cc2o1 | 0.9552 ± 0.0015
12 | CN(C)c1ccc(-c2nc3ncc(Cl)c(N4CCN(CC(=O)Nc5nccs5)CC4)c3[nH]2)cc1 | 0.946 ± 0.046
13 | O=C1N=C(O)NC1(c1ccccc1)c1ccccc1 [Phenytoin sodium] | 0.942 ± 0.05
14 | O=C1Nc2ccc(I)cc2/C1=C/c1cc(Br)c(O)c(Br)c1 | 0.978 ± 0.022
15 | CN(C)c1cc(NC(=O)CNC(C)(C)C)c(O)c2c1C[C@H]1C[C@H]3[C@H](N(C)C)C(O)=C(C(N)=O)C(=O)[C@@]3(O)C(O)=C1C2=O [Tigecycline] | 1.01 ± 0.061
16 | CCNc1nc(Nc2cc(F)c(C(=O)N3CCOCC3)cc2OC)ncc1C(F)(F)F | 0.915 ± 0.039
17 | COc1cc(NS(=O)(=O)c2ccc(N)cc2)nc(OC)n1 [Sulphadimethoxine] | 1.06 ± 0.035
18 | CC1(C)O[C@@H]2[C@@H](CO[C@@]3(COS(N)(=O)=O)OC(C)(C)O[C@@H]23)O1 [Topiramate] | 1.03 ± 0.026
19 | O=C(c1ccc(F)cc1)N1CCC[C@H](c2nc(-c3ccc(F)cc3)no2)C1 | 1.06 ± 0.064
20 | Cc1ccc(Cl)cc1N(CC(=O)Nc1c(F)cccc1F)S(C)(=O)=O | 0.998 ± 0.033
21 | Cc1ccc2nc(NCCN)c3ncc(C)n3c2c1 | 1.11 ± 0.053
22 | Cc1c(NC(=O)OC[C@@H]2COCCN2)cn2ncnc(Nc3ccc4c(cnn4Cc4cccc(F)c4)c3)c12 | 0.925 ± 0.021

Row | Compound | cell viability
23 | COc1ccc(C[C@H](NC(=O)[C@H](C)NC(=O)CN2CCOCC2)C(=O)N[C@@H](Cc2ccccc2)C(=O)[C@@]2(C)CO2)cc1 | 0.0203 ± 0.0028
24 | CC(C[N+](C)(C)C)OC(N)=O (stereo not drawn) [Bethanechol chloride] | 0.904 ± 0.077
25 | NS(=O)(=O)Cc1noc2ccccc12 [Zonisamide] | 0.98 ± 0.021
26 | C=CCc1ccc(O)c(-c2cc(CC=C)ccc2O)c1 [Magnolol] | 1.02 ± 0.037
27 | COc1ccc2c(c1)C(=O)N(CCc1ccc(S(=O)(=O)NC(=O)NC3CCCCC3)cc1)C(=O)C2(C)C [Gliquidone] | 0.95 ± 0.071
28 | COc1ccc([C@@H]2Sc3ccccc3N(CCN(C)C)C(=O)[C@@H]2OC(C)=O)cc1 [Diltiazem HCl] | 0.967 ± 0.043
29 | Cc1cn([C@H]2C[C@H](N=[N+]=[N-])[C@@H](CO)O2)c(=O)[nH]c1=O [Zidovudine] | 1.02 ± 0.015
30 | CC(=O)c1cc([N+](=O)[O-])c(Sc2ccc(F)cc2F)s1 | 0.969 ± 0.04
31 | CCNC(=O)c1noc(-c2cc(C(C)C)c(O)cc2O)c1-c1ccc(CN2CCOCC2)cc1 | 0.342 ± 0.013
32 | CC(=O)C1=C(O)C=C2Oc3c(C(C)=O)c(O)c(C)c(O)c3C2(C)C1=O (single isomer, unassigned; (+)) [(+)-Usniacin] | 0.9727 ± 0.0077
33 | CNCc1ccc(-c2[nH]c3cc(F)cc4c3c2CCNC4=O)cc1 | 0.907 ± 0.05
34 | CCCNC(C)C(=O)Nc1c(C)csc1C(=O)OC (stereo not drawn) [Articaine HCl] | 0.967 ± 0.03
35 | COc1ccc(CCc2nc3cc(-c4c(C)noc4C)ccc3n2C[C@H](C)N2CCOCC2)cc1Cl | 1.03 ± 0.053
36 | O=C(O)c1cc2cccc([N+](=O)[O-])c2[nH]1 | 1.02 ± 0.051
37 | O=C(O)c1ccc(-n2nc(-c3ccccc3O)nc2-c2ccccc2O)cc1 [Deferasirox] | 0.941 ± 0.034
38 | CN1C(C(=O)Nc2ccccn2)=C(O)c2ccccc2S1(=O)=O [Piroxicam] | 1.08 ± 0.027
39 | COc1c(C)c2c(c(O)c1C/C=C(\C)CCC(=O)OCCN1CCOCC1)C(=O)OC2 [Mycophenolate Mofetil] | 0.555 ± 0.04
40 | COCCOC(=O)C1=C(C)NC(C)=C(C(=O)OC(C)C)C1c1cccc([N+](=O)[O-])c1 (stereo not drawn) [Nimodipine] | 0.943 ± 0.06
41 | NCCS [Cysteamine HCl] | 1.04 ± 0.047
42 | O=C(NCc1cccc(O)c1)Nc1nc(-c2ccncc2)cs1 | 0.858 ± 0.014
43 | COC(=O)CCc1ccc(OCC(O)CNC(C)C)cc1 (stereo not drawn) [Esmolol HCl] | 0.964 ± 0.013
